# Measurements published in PubChem BioAssay AID1508642 (National Center for Advancing Translational Sciences (NCATS), 2021).
# Hit rate of the full screen: of about 43,000 compounds, about 200 (0.47%) were called active. Inconclusive results (about 12%) are left out. The call rests on the fitted dose curve; in most records, active means well fitted cell-killing curve with a large enough effect; inconclusive means small, poorly fitted or top-dose-only effect, or effect the other way; inactive means flat fitted curve, though single readings scatter. This is one part of the list.
# Experiment: Cell viability qHTS assay in S16 Pmp22-F2sN cells; further: nearly all actives have a fitted effect of over 65% in size
# Conditions: S16 Pmp22-F2sN Schwann cells (luciferase reporters placed in the Pmp22 gene) viability, CellTiter-Glo, 24 h; series mostly up to 57.5 µM; activity change, negative = cytotoxicity: at the top concentration
# Method in brief: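 Luminescence from CellTiter-Glo, read by CCD camera after a 15 min room-temperature incubation, served as the viability signal. Reporter Schwann cells (S16 Pmp22-F2sN) had been treated with pin-transferred compounds for 24 h at 37C.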
# On the % scale 0 is the no-effect control and ±100 the full control effect.
row,SMILES,"activity change, negative = cytotoxicity"
1,CCOc1ccccc1NC1(c2ccccc2)C(=O)c2ccccc2C1=O,inactive: -1.12%
2,CC1(C)N=C(SCc2ccc(F)cc2)c2ccccc2N1,inactive: -16.6%
3,CCNC(=O)c1ccc2c(c1)nc1n2CCCCC1,inactive: 4.03%
4,Cc1c(CNC2CCCCC2)c(C(=O)O)c(C)n1Cc1ccccc1F,inactive: -1.92%
5,Cc1ccccc1OCc1nc2c3cnn(-c4cccc(F)c4)c3ncn2n1,inactive: 19.4%
6,COc1cccc(N2CCN(C(=O)C3CCCN(S(=O)(=O)c4cccc5nsnc45)C3)CC2)c1 (stereo unspecified),inactive: -10.4%
7,Cc1ccc(CNC(=O)CCc2c(C)nn(-c3ccc(N4CCOCC4)nn3)c2C)cc1,inactive: 16.3%
8,CCOc1ccc(C(=O)c2cn(CC(=O)Nc3ccc4c(c3)OCO4)c3ccc(OC)cc3c2=O)cc1,inactive: -3.28%
9,O=C(CCn1c(=O)c2cccn2c2cccnc21)NCc1ccccc1Cl,inactive: 6.53%
10,CCOc1ccc(C(=O)Nc2cc(-c3nc4cc(OC)ccc4o3)ccc2C)cc1[N+](=O)[O-],inactive: 2.87%
11,Cc1ccc(Cl)cc1NC(=O)CSc1nc2ccccc2c2nc(-c3ccccc3)nn12,inactive: 0.0925%
12,CCOC(=O)C1CCN(C(=O)c2nn(-c3ccc(OC)c(Cl)c3)c(=O)c3c2c2ccccc2n3C)CC1,inactive: -17.1%
13,Cc1ccc(S(=O)(=O)c2cn(CC(=O)Nc3cccc(Cl)c3)c3ccccc3c2=O)cc1,inactive: 2.76%
14,CCn1c(=O)n(-c2ccc3c(c2)OCO3)c2nc(-c3ccc(C(C)C)cc3)nc(C(N)=O)c21,inactive: 14.7%
15,CCOc1ccc2c(c1)c(=O)c(C(=O)c1ccc(CC)cc1)cn2CC(=O)Nc1ccccc1OC,inactive: 16%
16,COc1ccc(OC)c(NC(=O)Cn2c(=O)c3cccn3c3ccccc32)c1,inactive: -2.35%
17,CCN(C(=O)CSc1nnc(-c2cc(OC)c(OC)c(OC)c2)o1)c1ccccc1,inactive: 4.1%
18,O=C(Cn1c(-c2cccs2)cc2ccccc21)N1CCN(c2ccccc2F)CC1,inactive: 1.76%
19,COc1ccc(NC(=O)CSC2=Nc3ccccc3C3=NC(CC(=O)NCc4ccco4)C(=O)N23)cc1 (stereo unspecified),inactive: -0.39%
20,Cc1ccc(C(=O)N(Cc2ccco2)Cc2ccco2)cc1,inactive: 9.31%
21,CCOc1cc(CNC(=O)c2ccccc2NC(=O)c2nsc3ccccc23)ccc1OC,inactive: -5.21%

row,SMILES,"activity change, negative = cytotoxicity"
1,CCOc1ccc(NC(=O)Cn2cc(C(=O)c3cccs3)c3ccccc32)cc1,inactive: 14.1%
2,CCOc1cccc(CC(=O)NCc2ccc3c(c2)CCN3C(=O)c2ccc(F)cc2)c1OCC,inactive: -2.08%
3,COc1ccc(CN(C)c2ccc(-c3nc(-c4ccccc4)no3)cc2[N+](=O)[O-])cc1,inactive: 11.9%
4,COc1cccc(CCNC(=O)c2cnc3sc(N4CCCCCC4)nn3c2=O)c1,inactive: 1.99%
5,O=C(Nc1ccc2oc(-c3cccnc3)nc2c1)c1ccc(-c2cccc(Cl)c2)o1,inactive: 11.8%
6,Cc1ccc(-n2nc3c(=O)n(CC(=O)NC(C)C)nc(C)c3c2C)cc1,inactive: 1.19%
7,Cc1cccc(Nc2ncc(NC(=O)c3cccc(F)c3)c(Nc3cccc(C)c3)n2)c1,inactive: 3.48%
8,CCC(CC)C(=O)Nc1ccc2nc(SCc3ccccc3)sc2c1,inactive: 18%
9,COc1ccc2c(CC(=O)Nc3ccc(C)cc3)coc2c1,inactive: 3.26%
10,COc1cccc(N(Cc2nnc3n2CCCCC3)C(=O)Nc2ccccc2)c1,inactive: -0.0948%
11,Cc1nc2nc(NC(=O)c3ccc(C(C)(C)C)cc3)[nH]n2c(=O)c1Cl,inactive: 5.25%
12,Cc1ccc(-c2nnc(SCC(=O)c3ccc(Cl)cc3)n2-c2ccccc2)cc1,inactive: 1.34%
13,CCOc1ccccc1NC(=O)C1CCN(S(=O)(=O)c2cc(Br)cc3c2N(C(C)=O)CC3)CC1,inactive: 2.84%
14,COc1cccc(CN2CCCN(CC(=O)Nc3ccc4c(c3)OCCO4)S2(=O)=O)c1,inactive: 15.2%
15,O=C(Nc1cccc(O)c1)c1cc2nc(-c3ccc(Br)cc3)cc(C(F)(F)F)n2n1,inactive: 5.21%
16,COc1ccc(N2CCN(C(=O)CSc3c4c(nc5ccc(Cl)cc35)CCCC4)CC2)cc1,inactive: -24.6%
17,CCOc1ccc(CNC(=O)c2ccc3c(c2)N(CC)CCS3)cc1,inactive: 6.87%
18,CCCCOc1ccc(C(=O)NCCc2sc(-c3ccc(OC)c(OC)c3)nc2C)cc1,inactive: -2.49%
19,Cc1ccc(NC(=O)C2CCN(S(=O)(=O)c3ccc4[nH]c(=O)ccc4c3)CC2)cc1C,inactive: 15.7%
20,Cc1ccccc1CNc1nc(N(C)C)nc2c1cnn2C,inactive: -3%
21,Cn1c(=NC(=O)c2ccc(S(=O)(=O)N3CCCC3)cc2)sc2cc(F)ccc21,inactive: -17.9%

row,SMILES,"activity change, negative = cytotoxicity"
1,CCc1ccccc1NCc1nnc2n1CCCCC2,inactive: -1.57%
2,O=C1COc2cc(S(=O)(=O)CCC(=O)N3CCN(c4ccccc4F)CC3)c(Cl)cc2N1,inactive: 9.16%
3,CCc1cccc(CC)c1NC(=O)Cn1c(=O)c(-c2cc(C)ccc2NC(C)=O)nc2ccccc21,inactive: 1.35%
4,CCCc1cc(N2CCN(c3ccccc3)CC2)n2cnnc2n1,inactive: -28.6%
5,CCc1ccc(CN(Cc2ccco2)c2cnc(S(C)(=O)=O)nc2C(=O)Nc2c(C)cccc2C)cc1,inactive: -3.49%
6,COc1cccc(NS(=O)(=O)c2ccc3c(c2)[C@H]2C=CC[C@H]2[C@@H](c2ccccc2Cl)N3)c1,inactive: -16.2%
7,Cc1[nH]c2ccccc2c1C(c1ccccc1)c1ccc(Cl)s1 (stereo unspecified),inactive: 5.07%
8,CCOc1ccccc1NC(=O)CCn1cnnn1,inactive: 8.19%
9,COc1cccc(CNC(=O)Cc2ccc(NC(=O)N3CCSc4ncccc43)cc2)c1OC,inactive: -6.06%
10,Cc1cccn2c(Nc3ccccc3)c(-c3cccs3)nc12,inactive: -5.47%
11,CCN(CC)CCNC(=O)CSc1nc2nc(C)c(Cc3ccccc3)c(C)n2n1,inactive: 3.96%
12,CCOc1ccc(CNC(=O)c2cnc3sc(N4CCOCC4)nn3c2=O)cc1OC,inactive: 2.47%
13,Cc1cccc(N2CCN(C(=O)CN3C(=O)COc4ccc(S(=O)(=O)N5CCC(C)CC5)cc43)CC2C)c1 (stereo unspecified),inactive: 3.39%
14,CC(C)c1nc2ccc(C(=O)NCCCN3CCN(c4cccc(Cl)c4)CC3)cc2o1,inactive: -21.7%
15,CCOC(=O)N1CCN(Cc2nc3cc([N+](=O)[O-])ccc3n2C(C)C)CC1,inactive: -16.6%
16,Cc1cccc(N2CCN(C(=O)C3CCCN(S(=O)(=O)c4ccc(Br)s4)C3)CC2)c1C (stereo unspecified),inactive: -13.7%
17,CCOC(=O)C1CCC(CN(Cc2ccc(Cl)cc2)S(=O)(=O)c2cc(Cl)cc(Cl)c2)CC1 (stereo unspecified),inactive: 0.482%
18,Cn1c(=O)c2c(SCC(=O)NCc3ccco3)nc(-c3cccc(F)c3)nc2n(C)c1=O,inactive: 2.57%
19,Cc1ccc(S(=O)(=O)c2cn(CC(=O)Nc3ccccc3C)c3cc4c(cc3c2=O)OCO4)cc1,inactive: -0.454%
